What all share (experiment): glycan array binding signal (z-score within array); higher = stronger binding
Holding throughout (details): glycan notation: IUPAC condensed, linker removed

Assay [1] has as its target Man(a1-3)[Man(a1-6)]Man(a1-6)[Man(a1-3)]Man. In a few lines:
(§1)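 Arrays were curated from the Consortium for Functional Glycomics database, 3228 in total, and kept only where the protein sequence was available. Binding is expressed as a within-array Z-score. This score was averaged across arrays of the same protein sequence at different concentrations or buffers and across linkers, and negative values can be read as non-binding.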

Assay [2] has as its target Man(a1-3)[Man(a1-6)]Man(a1-6)[Man(a1-3)]Man(b1-4)GlcNAc(b1-4)GlcNAc. The method, boiled down: as §1
Assay [3] concerns the target Man(a1-3)[Man(a1-6)]Man(b1-4)GlcNAc(b1-4)GlcNAc. The method, boiled down:
as §1

The target in assay [4] is Man(a1-3)[Man(a1-6)]Man(b1-4)GlcNAc(b1-4)[Fuc(a1-6)]GlcNAc. The method, boiled down:
as §1

In assay [5] the target is Man(a1-6)Man. In a few lines: as §1
For assay [6], the target named is Man(b1-4)GlcNAc. The method, boiled down:
as §1

In assay [7] the target is MurNAc(b1-4)GlcNAc. In a few lines:
as §1

The target in assay [8] is Neu5Ac(a2-3)Gal. The method, boiled down: as §1
The target in assay [9] is Neu5Ac(a2-3)Gal(b1-3)GalNAc. In a few lines:
as §1

The target of assay [10] is Neu5Ac(a2-3)Gal(b1-3)GalNAc(b1-3)Gal(a1-4)Gal(b1-4)Glc. In a few lines: as §1
In assay [11] the target is Neu5Ac(a2-3)Gal(b1-3)GalNAc(b1-4)[Neu5Ac(a2-3)]Gal(b1-4)Glc. The method, boiled down:
as §1

In assay [12] the target is Neu5Ac(a2-3)Gal(b1-3)GalNAc(b1-4)[Neu5Ac(a2-8)Neu5Ac(a2-3)]Gal(b1-4)Glc. The method, boiled down:
as §1

The target of assay [13] is Neu5Ac(a2-3)Gal(b1-3)GalNAc6S. The method, boiled down:
as §1

For assay [14], the target named is Neu5Ac(a2-3)Gal(b1-3)GlcNAc. The method, boiled down:
as §1

For assay [15], the target named is Neu5Ac(a2-3)Gal(b1-3)GlcNAc(b1-2)Man. The method, boiled down:
as §1

The target in assay [16] is Neu5Ac(a2-3)Gal(b1-3)GlcNAc(b1-2)Man(a1-3)[GlcNAc(b1-4)][Neu5Ac(a2-3)Gal(b1-3)GlcNAc(b1-2)Man(a1-6)]Man(b1-4)GlcNAc(b1-4)GlcNAc. In a few lines: as §1
Assay [17] has as its target Neu5Ac(a2-3)Gal(b1-3)GlcNAc(b1-2)Man(a1-3)[Neu5Ac(a2-3)Gal(b1-3)GlcNAc(b1-2)Man(a1-6)]Man(b1-4)GlcNAc(b1-4)GlcNAc. The method, boiled down:
as §1

The target of assay [18] is Neu5Ac(a2-3)Gal(b1-3)GlcNAc(b1-3)Gal(b1-3)GlcNAc. The method, boiled down:
as §1

Assay [19] deals with Neu5Ac(a2-3)Gal(b1-3)GlcNAc(b1-3)Gal(b1-4)GlcNAc. The method, boiled down: as §1
Assay [20] has as its target Neu5Ac(a2-3)Gal(b1-3)GlcNAc(b1-3)GalNAc. In a few lines: as §1
Assay [21] addresses Neu5Ac(a2-3)Gal(b1-3)GlcNAc(b1-4)Gal(b1-4)Glc. The method, boiled down:
as §1

Assay [22] addresses Neu5Ac(a2-3)Gal(b1-3)GlcNAc(b1-6)GalNAc. The method, boiled down:
as §1

Assay [23] concerns the target Neu5Ac(a2-3)Gal(b1-3)GlcNAc6S. The method, boiled down: as §1

The other results are listed elsewhere or left out.

B1: AAA (Anguilla anguilla), Q7SIC1 (protein)
chain: VIPEGYTQENVAVRGKATQSAQLRGEHAANSEASNAIDGNRDSNFYHGSCTHSSGQANPWWRVDLLQVYTITSVTITNRGDCCGERISGAEINIGQHLASNGVNNPECSVIGSMATGETKTFHCPAPMIGRYVVTYLPTSESLHLCEVEVNVDKPAAA
For B1, the “glycan array binding signal (z-score)” value was -0.09 in assay [1]; -0.599 in [2]; -0.092 in assay [3]; -0.163 in assay [4]; -0.104 in assay [5]; -0.232 in assay [6]. Also, the “glycan array binding signal (z-score)” value in [7] was 0.57; in [8] it was -0.03; in [9], -0.18; in [10] it was -0.094; in assay [11], -0.161; in assay [12], -0.178. The “glycan array binding signal (z-score)” value was 0.003 in assay [13]; -0.191 in [14]; -0.023 in assay [15]; -0.242 in assay [16]; -0.356 in [17]; -0.182 in assay [18]. Moreover, the “glycan array binding signal (z-score)” value in [19] is -0.234; in [20] it was -0.087; in assay [21] it was -0.14; in [22] it was -0.242; in [23], 0.003.

For the origin of these results see the supplement of paper PMC8728848.
